# Experimental data from the supplement of paper PMC3334620.
# The full ranking holds about 33,000 sequences; the median of “E-score (-0.5 to 0.5)” is about -0.016, and the highest 2% start at about 0.31. This is one part of the list.
# Target: Cst6 (UniProt P40535)
# Test: PBM E-score (8-mer binding enrichment) (E-score (-0.5 to 0.5)); higher = stronger / more preferred TF binding; most listed sequences are background and not binding sites
# Details: protein concentration: 200 nM; construct: GST-DNA-binding domain
# Method: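 Universal 'all 10-mer' protein binding microarrays (Agilent AMADID 015681) probed with GST-tagged S. cerevisiae TFs (full-length or DBD) made by in vitro transcription/translation (PURExpress), about 100-200 nM. Bound TF was detected with fluorescent anti-GST. Each ungapped 8-mer (which stands for itself and its reverse complement) is scored by the PBM enrichment score (E-score), a modified Wilcoxon-Mann-Whitney statistic from -0.5 to +0.5, computed with the Universal PBM Analysis Suite. Scale: above 0.35 generally sequence-specific binding.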
row,Sequence,PBM E-score
1,TCTCACCA,0.0956
2,CATATGCC,0.229
3,GGTGCGTA,-0.062
4,AAAATTTG,0.152
5,GGAGCACA,-0.11
6,AGCGCTCC,-0.148
7,ATGGTGTA,0.0889
8,CCACAGCA,-0.0512
9,CATCTTGC,0.0149
10,ACCGCAAT,0.181
11,AACACGCG,0.0673
12,AGCGTAAA,0.0369
13,CAAAAATC,0.0454
14,ATGCTAAA,0.0592
15,CGTTGATA,0.185
16,GGGCCAAA,-0.179
17,GTTCCAGA,0.00917
18,ATTCAATC,0.166
19,GCAGCAGC,-0.133
20,ACGTACAG,-0.032
21,ACGACGCG,0.127
22,CACTGTGG,-0.113

row,Sequence,PBM E-score
1,GCACATCA,0.131
2,TAGACTAA,-0.0425
3,AGGAGATG,-0.0344
4,GAAGGTCC,-0.302
5,GGTCAATA,0.0678
6,ATGGTTCG,-0.0714
7,CGATGGGA,-0.179
8,CCAGGGAA,-0.0639
9,GTGTCACA,0.229
10,ACGTTACC,0.179
11,TGGGTTAA,-0.0301
12,ACACCTGG,-0.163
13,GTTCGATA,0.114
14,TAAGTCGA,-0.0876
15,ATCCGGGC,-0.174
16,AATCCCCG,-0.236
17,AGGCCCCC,-0.367
18,CTGGATAA,-0.0534
19,GCTTTTTA,0.125
20,ACTTATGA,0.147
21,ACGTGAGA,0.0305
22,AAAGGTCC,-0.191

row,Sequence,PBM E-score
1,AGAGAGTG,-0.227
2,ACCTTGGA,-0.142
3,CTAGTGTC,-0.161
4,AGGACGTG,-0.088
5,GTTCTCGA,0.00202
6,AATTAATT,0.311
7,AGTTCTAA,-0.125
8,ACCACGCA,-0.0852
9,CATACGCC,0.156
10,AGTGACTC,0.0809
11,GAGTTGGC,-0.176
12,CCGGAAGA,-0.094
13,AGTAAGGC,0.0482
14,AAACCATC,0.0908
15,AACCGACG,-0.0249
16,CCCCAATA,-0.0749
17,CTTGCATC,-0.0262
18,ATGCCGCC,0.0661
19,AAAAGACC,-0.148
20,CATGCAAC,0.0477
21,CCAGCGAC,-0.217
22,CTAATAAC,0.221

row,Sequence,PBM E-score
1,AGTATAGG,-0.189
2,ACTCTTTA,-0.0326
3,AATGCGTA,0.0909
4,GTGCGTGA,0.136
5,CTCGCGCC,0.0861
6,AGCGACTA,-0.207
7,CAAGGCTA,0.0896
8,ACATCCTA,0.0123
9,TAGCACCA,0.0296
10,GCGAGTCA,-0.0735
11,CGCAACTC,0.0252
12,AGGTTAGG,0.0241
13,AACAAAAA,0.252
14,ACCCAGGT,-0.33
15,ACGGAAAT,0.264
16,GAACGCAA,0.0684
17,CTTGCGAA,0.0868
18,ACTGCGTC,0.147
19,ATCGTCGG,-0.215
20,ACTCGTTC,-0.0158
21,AGCGTACA,-0.145
22,ATCATGGG,0.00408

row,Sequence,PBM E-score
1,CCCCCGAG,-0.336
2,AGGCCCGG,-0.41
3,AGAAGTTA,0.201
4,CACAAGCA,-0.0762
5,GGGCAACA,-0.124
6,GATGATAA,0.257
7,ATTCAAGG,-0.108
8,AACTGAGA,0.062
9,CCCAATCG,-0.0318
10,ACCAGCGT,-0.0674
11,AAAAGGTG,-0.0235
12,ATACTAGG,-0.154
13,AAGGGCCC,-0.19
14,ATCACGCG,0.221
15,AACCGGAT,0.106
16,ATGTTCCG,-0.107
17,GATCATCC,-0.0712
18,ACAATTAG,0.0142
19,CCCGCACC,-0.231
20,AGAGACAT,-0.0521
21,AGTGACGA,0.399
22,AGAGTTTA,0.176
